Measurements published in the supplement of paper PMC3334620.
Over roughly 33,000 sequences, “E-score (-0.5 to 0.5)” has its median near -0.035; the highest 2% begin near 0.34. Some of the results follow.

What follows are sequences tested against T1, Mot3 (UniProt P54785) (assay: PBM E-score (8-mer binding enrichment) (E-score (-0.5 to 0.5)); higher = stronger / more preferred TF binding; most listed sequences are background and not binding sites). Conditions: protein concentration: 200 nM; construct: GST-full length.
T1 sequence: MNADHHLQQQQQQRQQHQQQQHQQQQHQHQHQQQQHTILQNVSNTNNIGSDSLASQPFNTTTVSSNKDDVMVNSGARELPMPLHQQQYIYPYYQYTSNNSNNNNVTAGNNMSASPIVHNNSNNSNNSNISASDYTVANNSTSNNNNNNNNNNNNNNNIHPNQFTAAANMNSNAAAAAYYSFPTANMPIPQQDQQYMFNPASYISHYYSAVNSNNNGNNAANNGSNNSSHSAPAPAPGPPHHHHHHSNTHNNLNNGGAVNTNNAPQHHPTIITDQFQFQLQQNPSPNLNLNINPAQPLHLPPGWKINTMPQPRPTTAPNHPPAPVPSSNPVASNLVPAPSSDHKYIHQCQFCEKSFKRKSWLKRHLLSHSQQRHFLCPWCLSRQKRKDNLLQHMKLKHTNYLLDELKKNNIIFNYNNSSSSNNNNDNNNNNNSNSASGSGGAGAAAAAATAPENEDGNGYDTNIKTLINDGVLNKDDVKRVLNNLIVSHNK
Procedure, shortened: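 Full-length yeast transcription factors or their DNA-binding domains, GST-tagged and expressed with PURExpress, were applied at about 100-200 nM to universal all-10-mer Agilent arrays. These arrays had been made double-stranded by primer extension on fresh or once-stripped slides. Detection used fluorescent anti-GST, normalisation used masliner, and E-scores for ungapped eight-base words pooled with reverse complements came from the Universal PBM Analysis Suite.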
With CGGATCAC the “PBM E-score” value was -0.00917. For CGCATTGC, the “PBM E-score” value was 0.14. For ATGCCGTA, the “PBM E-score” value was -0.00063. CTGAACGA was tested, and the “PBM E-score” value was -0.00312. With AAGTACCG the “PBM E-score” value was -0.0686. In the case of CACGCCTG, the “PBM E-score” value was 0.0646. With AGCACCAA the “PBM E-score” value was -0.152. For AAGGATTG, the “PBM E-score” value was -0.00028. With ACATCGTG the “PBM E-score” value was 0.193. CATCTCAC was tested, and the “PBM E-score” value was -0.169. For CTCTCTCA, the “PBM E-score” value was -0.207. In the case of CTCCGGCC, the “PBM E-score” value was -0.347. In the case of CACACACC, the “PBM E-score” value was 0.192. AACCGATC was tested, and the “PBM E-score” value was -0.0679. GTCACATA was tested, and the “PBM E-score” value was 0.114. CCATCCGC was tested, and the “PBM E-score” value was -0.164. For AAGTTTGT, the “PBM E-score” value was 0.0928. In the case of ATGCAGGC, the “PBM E-score” value was 0.342. With CGATCCAC the “PBM E-score” value was 0.063. AAAGAGGC was tested, and the “PBM E-score” value was 0.0868. With CAAGGCAG the “PBM E-score” value was 0.0705. In the case of AGGCGTGA, the “PBM E-score” value was -0.106. TGGCGTAA was tested, and the “PBM E-score” value was 0.0597. In the case of CCTCAAGG, the “PBM E-score” value was 0.0542. In the case of GAGCCGAA, the “PBM E-score” value was -0.298. ACTGACAC was tested, and the “PBM E-score” value was 0.102. In the case of AAGGGAAT, the “PBM E-score” value was 0.0135. In the case of ATTCCACC, the “PBM E-score” value was -0.0802. In the case of CTCCTCTC, the “PBM E-score” value was -0.368. For GCCCCCAC, the “PBM E-score” value was -0.396. With ATCGAAGA the “PBM E-score” value was -0.0794. With CGTATCGC the “PBM E-score” value was -0.121. ACGAGGAC was tested, and the “PBM E-score” value was -0.0954. In the case of CGCACTAA, the “PBM E-score” value was -0.0222. For CGTAATAA, the “PBM E-score” value was 0.288. TACAGCCA was tested, and the “PBM E-score” value was -0.031. For TTCCACAA, the “PBM E-score” value was 0.0161. For AGCGCACA, the “PBM E-score” value was -0.0577. GTAATCAC was tested, and the “PBM E-score” value was 0.185. For CACCGAAC, the “PBM E-score” value was -0.162. For ACGTTAAT, the “PBM E-score” value was 0.264. In the case of CCCCGTTC, the “PBM E-score” value was -0.109. In the case of AACCGTAC, the “PBM E-score” value was 0.0158. For CGTAGTTA, the “PBM E-score” value was 0.163. ATCGGGAA was tested, and the “PBM E-score” value was -0.133. For CACGCGTG, the “PBM E-score” value was 0.275. For TACCCAGA, the “PBM E-score” value was -0.0882. With CCGATCAG the “PBM E-score” value was -0.213. For CCGCTCCA, the “PBM E-score” value was -0.433. For ACCCACCG, the “PBM E-score” value was -0.207. With GATAAGCC the “PBM E-score” value was -0.251. For AGGCTCCA, the “PBM E-score” value was 0.335. In the case of CATATTAG, the “PBM E-score” value was 0.125. CCCGTAAA was tested, and the “PBM E-score” value was 0.0516. With CACAATTA the “PBM E-score” value was 0.102. With ACACGGAC the “PBM E-score” value was 0.269. GACCTTCC was tested, and the “PBM E-score” value was -0.0987. With GACCGGTC the “PBM E-score” value was -0.163. For GTATGTAA, the “PBM E-score” value was 0.404. For ATTACTAG, the “PBM E-score” value was 0.24. GAAGGGGA was tested, and the “PBM E-score” value was -0.0537. GCGGCCAA was tested, and the “PBM E-score” value was -0.165. ATTCCTGG was tested, and the “PBM E-score” value was -0.21. In the case of GGCTTGTA, the “PBM E-score” value was 0.236. For ACATGGGA, the “PBM E-score” value was 0.225. In the case of AGAAACAC, the “PBM E-score” value was 0.194. CCCGCTAC was tested, and the “PBM E-score” value was -0.0311. For ACTTACAT, the “PBM E-score” value was 0.311. CCTCTGTC was tested, and the “PBM E-score” value was -0.11. With CACGTAAA the “PBM E-score” value was 0.339. With AAAAGGAT the “PBM E-score” value was 0.157. With GACGTCAC the “PBM E-score” value was -0.0748. In the case of ACCATAAC, the “PBM E-score” value was -0.0601. In the case of CGTTTCTC, the “PBM E-score” value was -0.161. In the case of GCTGTCCC, the “PBM E-score” value was -0.207. In the case of CGCCCCAA, the “PBM E-score” value was -0.108. GAGTTCCA was tested, and the “PBM E-score” value was -0.142. For AGCGTGCC, the “PBM E-score” value was 0.343. ACTGGCTA was tested, and the “PBM E-score” value was -0.072. CTCAGTAC was tested, and the “PBM E-score” value was -0.0513. AGGACCAA was tested, and the “PBM E-score” value was 0.0511. AACTCCAA was tested, and the “PBM E-score” value was 0.0574. With CCACCTAC the “PBM E-score” value was -0.153. With CATAAAAG the “PBM E-score” value was 0.089. CAACAAGA was tested, and the “PBM E-score” value was 0.123. In the case of ACATCGAA, the “PBM E-score” value was -0.011. In the case of AGATAGGA, the “PBM E-score” value was -0.164. With AGGAGTAG the “PBM E-score” value was -0.152. With ACAGGGGT the “PBM E-score” value was 0.0837. With AGCAGCAA the “PBM E-score” value was -0.155. For GGGCGGGA, the “PBM E-score” value was -0.206. With AGCGTTTG the “PBM E-score” value was -0.298. In the case of CGGAGTGC, the “PBM E-score” value was -0.218. With CCGTCCAA the “PBM E-score” value was -0.272. For ACCAACAC, the “PBM E-score” value was 0.204. In the case of CGAGTACA, the “PBM E-score” value was 0.166. With AGGATCGC the “PBM E-score” value was -0.0405. In the case of ACGACCGT, the “PBM E-score” value was -0.178. CTAAGAAA was tested, and the “PBM E-score” value was 0.08. For AGCTGCAC, the “PBM E-score” value was -0.0112. For GACTCCAC, the “PBM E-score” value was -0.34. For ACTACCCT, the “PBM E-score” value was -0.181. In the case of ACCCTTAA, the “PBM E-score” value was -0.0329. For ACTCTTTG, the “PBM E-score” value was -0.11. With TCGGGCCA the “PBM E-score” value was -0.203. CCAACCAC was tested, and the “PBM E-score” value was 0.083. AACTCACA was tested, and the “PBM E-score” value was 0.0203. With CCCATATC the “PBM E-score” value was -0.181. With ATTTCCAG the “PBM E-score” value was 0.0581. For CCCTTAAA, the “PBM E-score” value was -0.00813. With CGCAACAA the “PBM E-score” value was 0.254. With GCTTCTAA the “PBM E-score” value was -0.144. With AAAATAAG the “PBM E-score” value was 0.0307. For ATTGCTTC, the “PBM E-score” value was 0.0452. For CAGGTTGA, the “PBM E-score” value was -0.155. For CCTCCATC, the “PBM E-score” value was -0.162. In the case of CACATAGG, the “PBM E-score” value was 0.138. AAAACAAC was tested, and the “PBM E-score” value was 0.141. AACCGGCA was tested, and the “PBM E-score” value was -0.154. For ATCGCGGC, the “PBM E-score” value was -0.23. CCATGCAG was tested, and the “PBM E-score” value was -0.146. For AGGGCAAC, the “PBM E-score” value was 0.161. For ACATTTCT, the “PBM E-score” value was -0.0306. With CACTCAAG the “PBM E-score” value was -0.0175. For GCGCCTCA, the “PBM E-score” value was -0.262. With CGAACGCA the “PBM E-score” value was 0.133. With GCTTAGAA the “PBM E-score” value was 0.00698. With CTGTAGCA the “PBM E-score” value was 0.041. For AATCCATC, the “PBM E-score” value was -0.21. For CCTTAGTC, the “PBM E-score” value was -0.0556. In the case of GAGGCGAC, the “PBM E-score” value was -0.128. For AGCAACTA, the “PBM E-score” value was 0.128. ATCTTAAT was tested, and the “PBM E-score” value was 0.111. For CTGGTTAC, the “PBM E-score” value was 0.0615. In the case of TCGGCCCA, the “PBM E-score” value was -0.257. In the case of ATTTGGGG, the “PBM E-score” value was -0.112. With CAAGCGAA the “PBM E-score” value was 0.0464. With GGCTCGGA the “PBM E-score” value was -0.324. With CAAAGTTA the “PBM E-score” value was 0.173. GGTAGGGA was tested, and the “PBM E-score” value was -0.104. For AAGGCCGG, the “PBM E-score” value was -0.32. TCGTTACA was tested, and the “PBM E-score” value was 0.163. In the case of ATGACTTA, the “PBM E-score” value was -0.0644. In the case of AACGTAGC, the “PBM E-score” value was 0.0725. For GCTGCTCC, the “PBM E-score” value was -0.178. GAGCGCGA was tested, and the “PBM E-score” value was -0.154. For CACGGAAG, the “PBM E-score” value was 0.118. ACATGGGC was tested, and the “PBM E-score” value was 0.277. In the case of CGCTGTAC, the “PBM E-score” value was 0.058. With TCCGCTAA the “PBM E-score” value was -0.229. ACCCTTCT was tested, and the “PBM E-score” value was -0.0754. With CGCCGTCA the “PBM E-score” value was -0.238. With TTACACAA the “PBM E-score” value was 0.42. For CTGGATTA, the “PBM E-score” value was 0.0668. In the case of TCGCTGCA, the “PBM E-score” value was -0.132. CGCGCGCG was tested, and the “PBM E-score” value was -0.00306. ATACTCGA was tested, and the “PBM E-score” value was -0.0507. In the case of CTGTAGAC, the “PBM E-score” value was 0.0199. AAGACCGC was tested, and the “PBM E-score” value was -0.139. In the case of CATCATCG, the “PBM E-score” value was -0.185. For CCACCTAG, the “PBM E-score” value was -0.085. In the case of ACCAACTA, the “PBM E-score” value was -0.055. With TCCGGAGA the “PBM E-score” value was -0.297. With AGCGTGAA the “PBM E-score” value was -0.0361. For AGGTCCTC, the “PBM E-score” value was -0.156. For TAGGCAGA, the “PBM E-score” value was 0.136. For GCTGGGCA, the “PBM E-score” value was -0.131. For GAGTGATC, the “PBM E-score” value was -0.141. In the case of ATTTACGA, the “PBM E-score” value was 0.189. With ATCTGACC the “PBM E-score” value was -0.149. In the case of TATTTTAA, the “PBM E-score” value was 0.159. In the case of CCCATCAG, the “PBM E-score” value was -0.197.
